{"source": "ChEMBL document CHEMBL4689842", "about": "“EUbOPEN Chemogenomics Library wave 1” (2021)", "assay_type_in_all_cases": "toxicity, cell-based", "key": {"Fibroblast": {"test_system": "Fibroblast", "experiment": "Multiplex assay against human fibroblast", "summary_of_the_method": "(§1)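 On a CQ1 microscope at 37°C and 5% CO2, live cells were imaged after compound addition. They had been stained at seeding with Hoechst33342, BioTracker Green Microtubule Cytoskeleton Dye, MitoTracker Red and Annexin V Alexa Fluor 680. CellPathfinder machine-learning gating assigned cells to Hoechst high-intensity objects or normal cells, normal cells to healthy, pyknosed or fragmented nuclei, and pyknosed cells to mitotic or apoptotic. Tubulin, mitochondrial-mass and membrane-permeability phenotypes are per cents of healthy-nucleus cells.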"}, "U2OS": {"test_system": "U2OS", "experiment": "Multiplex assay against U2OS", "settings": "human", "summary_of_the_method": "as §1"}, "HEK-293T": {"test_system": "HEK-293T", "experiment": "Multiplex assay against HEK293T", "settings": "human, 10 µM, compound concentration 10 uM", "summary_of_the_method": "as §1"}, "[1]": {"settings": "12 h, 10 µM, compound concentration 10 uM, replicate 1"}, "[2]": {"settings": "12 h, 10 µM, compound concentration 10 uM, replicate 2"}, "[3]": {"settings": "24 h, 10 µM, compound concentration 10 uM, replicate 1"}, "[4]": {"settings": "24 h, 10 µM, compound concentration 10 uM, replicate 2"}, "[5]": {"settings": "12 h, 1 µM, compound concentration 1 uM, replicate 2"}, "[6]": {"settings": "24 h, 1 µM, compound concentration 1 uM, replicate 2"}, "[7]": {"settings": "48 h, 1 µM, compound concentration 1 uM, replicate 2"}}, "note": "For part of its entries the source gives two or more results. The list is limited to them. The source may hold further records. The values listed for one entry repeat one measurement in other runs, samples, wells, individuals or studies."}
{"smiles": "Cn1cncc1[C@@](O)(COc1ccc(C#N)cc1-c1ccc(OC(F)(F)F)cc1)c1ccc(C#N)cc1", "note": "[A-108]", "values": [{"measurement": "Population Tubulin-Different-Phenotype (%)", "setting": "Fibroblast; [1]", "value": "67% and 10%"}, {"measurement": "Population Mitochondria Different-Phenotype (%)", "setting": "Fibroblast; [2]", "value": "10% and 76%"}, {"measurement": "Population Mitochondria Different-Phenotype (%)", "setting": "Fibroblast; [3]", "value": "42% and 3%"}, {"measurement": "Population Tubulin-Different-Phenotype (%)", "setting": "Fibroblast; [3]", "value": "61% and 5%"}, {"measurement": "Population Fragmented Nuclei (%)", "setting": "U2OS; [1]", "value": "12% and 3%"}, {"measurement": "Population Tubulin-Different-Phenotype (%)", "setting": "U2OS; [1]", "value": "96% and 25%"}, {"measurement": "Population Fragmented Nuclei (%)", "setting": "U2OS; [2]", "value": "19% and 6%"}, {"measurement": "Population Membrane Permeable-Phenotype (%)", "setting": "U2OS; [2]", "value": "28% and 8%"}, {"measurement": "Population Pyknosed Nuclei (%)", "setting": "U2OS; [2]", "value": "19% and 2%"}, {"measurement": "Population Tubulin-Different-Phenotype (%)", "setting": "U2OS; [2]", "value": "91% and 27%"}, {"measurement": "Population Apoptotic (%)", "setting": "U2OS; [3]", "value": "71% and 22%"}, {"measurement": "Population Tubulin-Different-Phenotype (%)", "setting": "U2OS; [3]", "value": "66% and 21%"}, {"measurement": "Population Membrane Permeable-Phenotype (%)", "setting": "U2OS; [4]", "value": "35% and 9%"}, {"measurement": "Population Pyknosed Nuclei (%)", "setting": "U2OS; [4]", "value": "25% and 5%"}, {"measurement": "Population Membrane Permeable-Phenotype (%)", "setting": "HEK-293T; 12 h, replicate 1", "value": "59% and 8%"}, {"measurement": "Population Tubulin-Different-Phenotype (%)", "setting": "HEK-293T; 12 h, replicate 1", "value": "93% and 8%"}, {"measurement": "Population Membrane Permeable-Phenotype (%)", "setting": "HEK-293T; 12 h, replicate 2", "value": "57% and 2%"}, {"measurement": "Population Pyknosed Nuclei (%)", "setting": "HEK-293T; 12 h, replicate 2", "value": "19% and 5%"}, {"measurement": "Population Tubulin-Different-Phenotype (%)", "setting": "HEK-293T; 12 h, replicate 2", "value": "96% and 15%"}, {"measurement": "Population Membrane Permeable-Phenotype (%)", "setting": "HEK-293T; 24 h, replicate 1", "value": "61% and 10%"}, {"measurement": "Population Pyknosed Nuclei (%)", "setting": "HEK-293T; 24 h, replicate 1", "value": "28% and 9%"}, {"measurement": "Population Tubulin-Different-Phenotype (%)", "setting": "HEK-293T; 24 h, replicate 1", "value": "95% and 16%"}, {"measurement": "Population Fragmented Nuclei (%)", "setting": "HEK-293T; 24 h, replicate 2", "value": "5% and 26%"}, {"measurement": "Population Membrane Permeable-Phenotype (%)", "setting": "HEK-293T; 24 h, replicate 2", "value": "64% and 8%"}, {"measurement": "Population Pyknosed Nuclei (%)", "setting": "HEK-293T; 24 h, replicate 2", "value": "20% and 2%"}]}
{"smiles": "O=C(NCCN1CCOCC1)c1ccc2c(c1)C(=O)c1ccc(Nc3ccc(F)c(NC(=O)c4ccccc4)c3)cc1CC2", "note": "[FS-694]", "values": [{"measurement": "Population Hoechst High Intensity Objects (%)", "setting": "Fibroblast; [1]", "value": "18% and 70%"}, {"measurement": "Population Membrane Permeable-Phenotype (%)", "setting": "Fibroblast; [1]", "value": "5% and 17%"}, {"measurement": "Population Mitochondria Different-Phenotype (%)", "setting": "Fibroblast; [1]", "value": "6% and 1%"}, {"measurement": "Population Normal (%)", "setting": "Fibroblast; [2]", "value": "55% and 17%"}, {"measurement": "Population Tubulin-Different-Phenotype (%)", "setting": "Fibroblast; [2]", "value": "36% and 10%"}, {"measurement": "Total Cell Count", "setting": "Fibroblast; [2]", "value": "126 and 915"}, {"measurement": "Population Hoechst High Intensity Objects (%)", "setting": "Fibroblast; [3]", "value": "65% and 19%"}, {"measurement": "Total Cell Count", "setting": "Fibroblast; [4]", "value": "120 and 859"}, {"measurement": "Population Fragmented Nuclei (%)", "setting": "U2OS; [1]", "value": "7% and 31%"}, {"measurement": "Population Hoechst High Intensity Objects (%)", "setting": "U2OS; [1]", "value": "4% and 46%"}, {"measurement": "Population Apoptotic (%)", "setting": "U2OS; [2]", "value": "39% and 10%"}, {"measurement": "Population Hoechst High Intensity Objects (%)", "setting": "U2OS; [2]", "value": "52% and 10%"}, {"measurement": "Population Mitochondria Different-Phenotype (%)", "setting": "U2OS; [2]", "value": "61% and 14%"}, {"measurement": "Population Tubulin-Different-Phenotype (%)", "setting": "U2OS; [2]", "value": "83% and 23%"}, {"measurement": "Population Fragmented Nuclei (%)", "setting": "U2OS; [3]", "value": "28% and 7%"}, {"measurement": "Population Hoechst High Intensity Objects (%)", "setting": "U2OS; [3]", "value": "44% and 4%"}, {"measurement": "Population Mitochondria Different-Phenotype (%)", "setting": "U2OS; [3]", "value": "73% and 17%"}, {"measurement": "Population Tubulin-Different-Phenotype (%)", "setting": "U2OS; [3]", "value": "89% and 29%"}, {"measurement": "Population Hoechst High Intensity Objects (%)", "setting": "U2OS; [4]", "value": "52% and 8%"}, {"measurement": "Population Mitochondria Different-Phenotype (%)", "setting": "U2OS; [4]", "value": "77% and 24%"}, {"measurement": "Population Tubulin-Different-Phenotype (%)", "setting": "U2OS; [4]", "value": "87% and 12%"}, {"measurement": "Population Hoechst High Intensity Objects (%)", "setting": "HEK-293T; 12 h, replicate 1", "value": "58% and 14%"}, {"measurement": "Population Hoechst High Intensity Objects (%)", "setting": "HEK-293T; 12 h, replicate 2", "value": "23% and 3%"}, {"measurement": "Population Fragmented Nuclei (%)", "setting": "HEK-293T; 24 h, replicate 1", "value": "41% and 10%"}, {"measurement": "Population Healthy Nuclei (%)", "setting": "HEK-293T; 24 h, replicate 1", "value": "24% and 73%"}, {"measurement": "Population Hoechst High Intensity Objects (%)", "setting": "HEK-293T; 24 h, replicate 1", "value": "56% and 10%"}, {"measurement": "Population Apoptotic (%)", "setting": "HEK-293T; 24 h, replicate 2", "value": "9% and 39%"}, {"measurement": "Population Hoechst High Intensity Objects (%)", "setting": "HEK-293T; 24 h, replicate 2", "value": "4% and 30%"}, {"measurement": "Population Membrane Permeable-Phenotype (%)", "setting": "HEK-293T; 24 h, replicate 2", "value": "19% and 6%"}, {"measurement": "Population Mitochondria Different-Phenotype (%)", "setting": "HEK-293T; 24 h, replicate 2", "value": "11% and 70%"}, {"measurement": "Population Pyknosed Nuclei (%)", "setting": "HEK-293T; 24 h, replicate 2", "value": "4% and 36%"}]}
{"smiles": "Cc1sc2c(c1C)C(c1ccc(Cl)cc1)=N[C@@H](CC(=O)OC(C)(C)C)c1nnc(C)n1-2", "values": [{"measurement": "Population Mitochondria Different-Phenotype (%)", "setting": "Fibroblast; [2]", "value": "7% and 31%"}, {"measurement": "Population Tubulin-Different-Phenotype (%)", "setting": "Fibroblast; [2]", "value": "5% and 18%"}, {"measurement": "Population Membrane Permeable-Phenotype (%)", "setting": "Fibroblast; [4]", "value": "27% and 5%"}, {"measurement": "Total Cell Count", "setting": "U2OS; [2]", "value": "193 and 1392"}, {"measurement": "Total Cell Count", "setting": "U2OS; [3]", "value": "2033 and 200"}, {"measurement": "Total Cell Count", "setting": "U2OS; [4]", "value": "175 and 1354"}]}
{"smiles": "Nc1c(C(=O)NCc2ccc(C(=O)NCCCC3CCCCC3)cc2)cnn1-c1ccccc1", "note": "[SR-318]", "values": [{"measurement": "Population Apoptotic (%)", "setting": "Fibroblast; [5]", "value": "50%, 12%, 0%"}, {"measurement": "Population Hoechst High Intensity Objects (%)", "setting": "Fibroblast; [5]", "value": "4%, 26%, 3%"}, {"measurement": "Population Pyknosed Nuclei (%)", "setting": "Fibroblast; [5]", "value": "6%, 18%, 4%"}, {"measurement": "Population Membrane Permeable-Phenotype (%)", "setting": "Fibroblast; [1]", "value": "24%, 9%, 2%"}, {"measurement": "Population Hoechst High Intensity Objects (%)", "setting": "Fibroblast; [2]", "value": "7% and 1%"}, {"measurement": "Population Membrane Permeable-Phenotype (%)", "setting": "Fibroblast; [2]", "value": "10%, 7%, 3%"}, {"measurement": "Population Hoechst High Intensity Objects (%)", "setting": "Fibroblast; [6]", "value": "5%, 2%, 22%"}, {"measurement": "Population Membrane Permeable-Phenotype (%)", "setting": "Fibroblast; [3]", "value": "21%, 10%, 4%"}, {"measurement": "Population Hoechst High Intensity Objects (%)", "setting": "Fibroblast; [4]", "value": "1% and 7%"}, {"measurement": "Population Pyknosed Nuclei (%)", "setting": "Fibroblast; [7]", "value": "4% and 1%"}, {"measurement": "Population Apoptotic (%)", "setting": "Fibroblast; 48 h, 10 µM, compound concentration 10 uM, replicate 2", "value": "16%, 50%, 14%"}, {"measurement": "Population Apoptotic (%)", "setting": "U2OS; [5]", "value": "50%, 12%, 0%"}, {"measurement": "Population Hoechst High Intensity Objects (%)", "setting": "U2OS; [5]", "value": "4% and 26%"}, {"measurement": "Population Pyknosed Nuclei (%)", "setting": "U2OS; [5]", "value": "6%, 18%, 4%"}, {"measurement": "Population Hoechst High Intensity Objects (%)", "setting": "U2OS; [6]", "value": "5%, 2%, 22%"}, {"measurement": "Population Hoechst High Intensity Objects (%)", "setting": "U2OS; [7]", "value": "4%, 1%, 16%"}]}
